The other results are listed elsewhere or left out. Repeats are few or missing, and single values can be far off.
Assays:
Experiment in all cases: cell count relative to DMSO control; melanoma cells; higher = more viable cells
Conditions in all cases: library dose: low library concentration; 72 h
MZ2-MEL = tested on: MZ2-MEL
MeWo = tested on: MeWo
RPMI7951 = tested on: RPMI7951
RVH-421 = tested on: RVH-421
SkMel28 = tested on: SkMel28
SkMel30 = tested on: SkMel30
UACC62 = tested on: UACC62
SkMel2 = tested on: SkMel2
SkMel5 = tested on: SkMel5
UACC257 = tested on: UACC257
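Note: cell number obtained by counting DAPI-stained nuclei in high-throughput microscope images with image analysis software, screen run in 1,536-well plates.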

| Structure (SMILES) | cell count (MZ2-MEL) [%] | cell count (MeWo) [%] | cell count (RPMI7951) [%] | cell count (RVH-421) [%] | cell count (SkMel28) [%] | cell count (SkMel30) [%] | cell count (UACC62) [%] | cell count (SkMel2) [%] | cell count (SkMel5) [%] | cell count (UACC257) [%] |
| --- | --- | --- | --- | --- | --- | --- | --- | --- | --- | --- |
| COc1cc([C@@H]2c3cc4c(cc3[C@@H](O[C@@H]3O[C@@H]5CO[C@@H](C)O[C@H]5[C@H](O)[C@H]3O)[C@H]3COC(=O)[C@H]23)OCO4)cc(OC)c1O [etoposide] + CO[C@H]1C[C@@H]2CC[C@@H](C)[C@@](O)(O2)C(=O)C(=O)N2CCCC[C@H]2C(=O)O[C@H]([C@H](C)C[C@@H]2CC[C@@H](OCCO)[C@H](OC)C2)CC(=O)[C@H](C)/C=C(\C)[C@@H](O)[C@@H](OC)C(=O)[C@H](C)C[C@H](C)/C=C/C=C/C=C/1C [everolimus] (first compound 0.02 µM, partner dose 0.02 µM) | 69.1 | 69.9 | 81.6 | 86.5 | 52.8 | 61.6 | 54.6 |  |  |  |
| COc1cc([C@@H]2c3cc4c(cc3[C@@H](O[C@@H]3O[C@@H]5CO[C@@H](C)O[C@H]5[C@H](O)[C@H]3O)[C@H]3COC(=O)[C@H]23)OCO4)cc(OC)c1O [etoposide] + CCCCCCCCCCCC1=C(O)C(=O)C=C(O)C1=O [Embelin] (first compound 0.02 µM, partner dose 1.2 µM) | 106 | 107 | 88.8 | 99.3 | 101 |  | 96.2 | 95.4 | 115 | 97.7 |
| C[C@]1(O)C[C@@H](c2nc(-c3ccc4ccc(-c5ccccc5)nc4c3)c3c(N)nccn32)C1 + CC(=O)c1c(C)c2cnc(Nc3ccc(N4CCNCC4)cn3)nc2n(C2CCCC2)c1=O [palbociclib] (first compound 0.4 µM, partner dose 0.04 µM) |  | 86.1 | 84.4 | 105 | 92.5 | 74.3 | 76.1 |  |  |  |
| Cn1cnc2c(F)c(Nc3ccc(Br)cc3Cl)c(C(=O)NOCCO)cc21 [selumetinib] + COc1cc(N2CCC(N3CCN(C)CC3)CC2)ccc1Nc1ncc(Cl)c(Nc2ccccc2S(=O)(=O)C(C)C)n1 [NVP-TAE684] (first compound 0.015 µM, partner dose 0.08 µM) |  | 89.3 | 118 | 90.9 | 85.1 | 52.9 | 64.6 | 60 | 94.2 | 79.6 |
| Cn1cnc2c(F)c(Nc3ccc(Br)cc3Cl)c(C(=O)NOCCO)cc21 [selumetinib] + COCC[n+]1c2c(n(Cc3cnccn3)c1C)C(=O)c1ccccc1C2=O [YM155] (first compound 0.015 µM, partner dose 0.0004 µM) | 72.1 | 87.9 | 88.2 | 69.6 | 82.6 | 82.9 | 84.2 |  |  |  |
| C[C@]1(O)C[C@@H](c2nc(-c3ccc4ccc(-c5ccccc5)nc4c3)c3c(N)nccn32)C1 + Nc1nc(F)nc2c1ncn2[C@@H]1O[C@H](CO)[C@@H](O)[C@@H]1O [fludarabine] (first compound 0.4 µM, partner dose 0.2 µM) |  | 38.3 | 90.9 | 104 | 77.6 | 14.9 | 73.7 |  |  |  |
| CCN(CC)CCNC(=O)c1c(C)[nH]c(/C=C2\C(=O)Nc3ccc(F)cc32)c1C [sunitinib] + OCc1c[nH]c2ccccc12 [Indole-3-carbinol] (first compound 0.4 µM, partner dose 0.8 µM) | 101 | 89 | 96 | 101 | 96.5 | 66 | 99 | 104 |  |  |
| C[C@]1(O)C[C@@H](c2nc(-c3ccc4ccc(-c5ccccc5)nc4c3)c3c(N)nccn32)C1 + CCCCCCCCc1ccc(CCC(N)(CO)CO)cc1 [fingolimod] (first compound 0.4 µM, partner dose 2 µM) | 94.1 | 80.9 | 68.4 | 95.6 | 78.7 | 74.5 | 75.5 |  |  |  |
| CCN(CC)CCNC(=O)c1c(C)[nH]c(/C=C2\C(=O)Nc3ccc(F)cc32)c1C [sunitinib] + CC1(C)NC(=O)N(c2ccc([N+](=O)[O-])c(C(F)(F)F)c2)C1=O [nilutamide] (first compound 0.4 µM, partner dose 1 µM) |  | 91.6 | 117 | 124 | 100 | 76.3 | 95.5 |  | 85.8 | 114 |
| C[C@]1(O)C[C@@H](c2nc(-c3ccc4ccc(-c5ccccc5)nc4c3)c3c(N)nccn32)C1 + CN(c1ncccc1CNc1nc(Nc2ccc3c(c2)CC(=O)N3)ncc1C(F)(F)F)S(C)(=O)=O [PF562271] (first compound 0.4 µM, partner dose 0.08 µM) | 71.7 | 86.4 | 85.7 | 95.1 | 88.3 | 74.1 | 90.6 | 76 |  |  |
| COc1cc([C@@H]2c3cc4c(cc3[C@@H](O[C@@H]3O[C@@H]5CO[C@@H](C)O[C@H]5[C@H](O)[C@H]3O)[C@H]3COC(=O)[C@H]23)OCO4)cc(OC)c1O [etoposide] + COc1ccc2c(c1)CCC1C2CCC2(C)C(NCCCCCCN3C(=O)C=CC3=O)CCC12 [U73122] (first compound 0.02 µM, partner dose 0.4 µM) | 90.5 | 87 | 99.3 |  | 102 | 92.4 | 74.8 | 92.4 | 89.2 | 71.6 |
| Cn1cnc2c(F)c(Nc3ccc(Br)cc3Cl)c(C(=O)NOCCO)cc21 [selumetinib] + C[C@@H](Oc1cc(-c2cnn(C3CCNCC3)c2)cnc1N)c1c(Cl)ccc(F)c1Cl [Crizotinib] (first compound 0.015 µM, partner dose 0.2 µM) | 93.8 | 94.4 | 99 | 76.8 | 94.2 | 69.8 | 68.9 | 66.1 |  |  |
| C[C@]1(O)C[C@@H](c2nc(-c3ccc4ccc(-c5ccccc5)nc4c3)c3c(N)nccn32)C1 + Cn1cc(/C=C2\C(=O)Nc3cccnc32)c2ccccc21 [GW441756] (first compound 0.4 µM, partner dose 0.4 µM) |  | 93.1 | 99.4 | 86.3 | 74.4 | 81.3 | 92.8 |  | 77.5 | 62.8 |
| Cn1cnc2c(F)c(Nc3ccc(Br)cc3Cl)c(C(=O)NOCCO)cc21 [selumetinib] + C=C(c1ccc(C(=O)O)cc1)c1cc2c(cc1C)C(C)(C)CCC2(C)C [Bexarotene] (first compound 0.015 µM, partner dose 2 µM) |  | 83.7 | 100 | 84.6 | 72.3 | 72.3 | 65.1 |  |  |  |
| CCN(CC)CCNC(=O)c1c(C)[nH]c(/C=C2\C(=O)Nc3ccc(F)cc32)c1C [sunitinib] + O=C(O)C(=O)Nc1sc2c(c1C(=O)O)CCNC2 [TCS401] (first compound 0.4 µM, partner dose 1.66667 µM) |  | 88.4 | 97.8 | 112 | 93.2 | 73.2 | 91.2 | 114 | 104 | 96.4 |
| COc1cc([C@@H]2c3cc4c(cc3[C@@H](O[C@@H]3O[C@@H]5CO[C@@H](C)O[C@H]5[C@H](O)[C@H]3O)[C@H]3COC(=O)[C@H]23)OCO4)cc(OC)c1O [etoposide] + O=C(/C=C/c1cccnc1)NCCCCC1CCN(C(=O)c2ccccc2)CC1 [FK866] (first compound 0.02 µM, partner dose 0.01 µM) |  | 96.5 | 98.8 | 66 | 103 | 110 | 87.8 | 46.8 |  |  |
| COc1cc([C@@H]2c3cc4c(cc3[C@@H](O[C@@H]3O[C@@H]5CO[C@@H](C)O[C@H]5[C@H](O)[C@H]3O)[C@H]3COC(=O)[C@H]23)OCO4)cc(OC)c1O [etoposide] + CC1(C)CCC(c2ccc(Cl)cc2)=C(CN2CCN(c3ccc(C(=O)NS(=O)(=O)c4ccc(N[C@H](CCN5CCOCC5)CSc5ccccc5)c(S(=O)(=O)C(F)(F)F)c4)cc3)CC2)C1 [ABT263] (first compound 0.02 µM, partner dose 0.4 µM) | 88.8 | 62.1 | 60.1 | 63.6 | 93.4 | 70.9 | 93.3 | 74.9 |  |  |
| Cn1cnc2c(F)c(Nc3ccc(Br)cc3Cl)c(C(=O)NOCCO)cc21 [selumetinib] + Cc1cc([N+](=O)[O-])ccc1NS(=O)(=O)c1cc(Cl)ccc1Cl [FH535] (first compound 0.015 µM, partner dose 1 µM) |  | 97.9 | 108 | 90.6 | 81 | 62.1 | 64.7 | 60.3 | 116 | 99.9 |
| COc1cc([C@@H]2c3cc4c(cc3[C@@H](O[C@@H]3O[C@@H]5CO[C@@H](C)O[C@H]5[C@H](O)[C@H]3O)[C@H]3COC(=O)[C@H]23)OCO4)cc(OC)c1O [etoposide] + c1cc(-c2cnn3cc(-c4ccc(OCCN5CCCCC5)cc4)cnc23)ccn1 [Dorsomorphin] (first compound 0.02 µM, partner dose 0.4 µM) | 104 | 93.6 | 105 | 118 | 105 |  | 104 | 92.7 | 79.8 | 92.3 |
| COc1cc([C@@H]2c3cc4c(cc3[C@@H](O[C@@H]3O[C@@H]5CO[C@@H](C)O[C@H]5[C@H](O)[C@H]3O)[C@H]3COC(=O)[C@H]23)OCO4)cc(OC)c1O [etoposide] + O=C(O)c1ccc2c(c1)nc(Nc1cccc(Cl)c1)c1ccncc12 [CX4945] (first compound 0.02 µM, partner dose 0.4 µM) | 86.4 | 94.9 | 111 | 84.4 | 93.1 | 95.6 | 91.4 | 91.5 |  |  |

From the supplement of paper PMC4604168 (melanoma cell lines)
